{"source": "patent US9533055", "about": "(ARMAGEN TECHNOLOGIES, dated 2017)", "target": "T1, human TNFα (human, UniProt P01375 partial chain)", "T1 construct": "Bought; also called tumor necrosis factor-α", "assay": "ELISA, plated human TNFα, linear regression of binding curve", "description": "Binding of the HIRMAb-TNFR fusion protein to TNFα was determined with an ELISA. The capture reagent was commercially available human TNFα. The positive control in the assay was commercially available recombinant human TNFR-II:human IgG1 Fc fusion protein, designated TNFR: Fc, and the negative control was human IgG1/κ. The TNFα was dissolved in 0.1 M NaHCO3/pH=9.0 and plated overnight at 4 C in 100 μl/well (0.2 μg/well). After washing with 0.01 M Tris/0.15 M NaCl/pH=7.4 (TBS), the wells were blocked with 1% bovine serum albumin (BSA) in TBS for 30 min. A volume of 100 μl/well of HIRMAb-TNFR, TNFR:Fc, or human IgG1k was plated for 60 min at room temperature. After washing with TBS plus 0.05% Tween-20 (TBST), a goat anti-human IgG-alkaline phosphatase conjugate was incubated (0.2 μg/well) for 60 min. Following washing with TBST, color detection at 405 nm was performed with an ELISA plate reader after color development with para-nitrophenylphosphate and termination of the reaction with 1.2 M NaOH. […] Therefore, the data were fit to a linear regression analysis to compute the slope of the binding curve. The reciprocal of the slope is equal to the KD/Amax ratio, where KD is the binding constant of TNFR binding to the plated TNFα, and Amax is the maximum absorbance. […] The affinity of either recombinant TNFR:Fc or the HIRMAb-TNFR fusion protein for human TNFα was measured with an ELISA.", "data": [{"binder": "HIRMAb-TNFR fusion protein (other, IgG-decoy receptor fusion: TNFR-II ECD fused to the carboxyl terminus of each heavy chain of the chimeric HIRMAb; also called fusion protein of HIRMAb and TNFR ECD; HIRMAb-TNF-decoy receptor fusion protein) heavy: QVQLQQSGPELVKPGALVKISCKASGYTFTNYDIHWVKQRPGQGLEWIGWIYPGDGSTKYNEKFKGKATLTADKSSSTAYMHLSSLTSEKSAVYFCAREWAYWGQGTLVTVSA[in this place human IgG1 constant region]SSLPAQVAFTPYAPEPGSTCRLREYYDQTAQMCCSKCSPGQHAKVFCTKTSDTVCDSCEDSTYTQLWNWVPECLSCGSRCSSDQVETQACTREQNRICTCRPGWYCALSKQEGCRLCAPLRKCRPGFGVARPGTETSDVVCKPCAPGTFSNTTSSTDICRPHQICNVVAIPGNASRDAVCTSTSPTRSMAPGAVHLPQPVSTRSQHTQPTPKPSTAPSTSFLLPMGPSPPAEGSTGD light: DIQMTQSPSSLSASLGERVSLTCRASQDIGGNLYWLQQGPDGTIKRLIYATSSLDSGVPKRFSGSRSGSDYSLTISSLESEDFVDYYCLQYSSSPWTFGGGTKMEIKRTVAAPSVFIFPPSDEQLKSGTASVVCLLNNFYPREAKVQWKVDNALQSGNSQESVTEQDSKDSTYSLSSTLTLSKADYEKHKVYACEVTHQGLSSPVTKSFNRGEC", "values": [{"measurement": "KD/Amax ratio", "value": 1.4, "unit": "nM"}]}]}
